In patent US20150004162A1:
Substitutions are numbered along the chain they refer to. Results are given in words; binding and its absence hold for the method and conditions named. Some entries that bind do so weakly or less than the wild type. For some of these results: Sequences can lack the tags named with a protein. Blank lines part the entries; values can stand above or below the binder they belong to.

Sequences of proteins named here, by UniProt entry; tags and fusion partners are left off. A change or cut given only in a name is not applied to a line headed by its entry.
UniProt O14763: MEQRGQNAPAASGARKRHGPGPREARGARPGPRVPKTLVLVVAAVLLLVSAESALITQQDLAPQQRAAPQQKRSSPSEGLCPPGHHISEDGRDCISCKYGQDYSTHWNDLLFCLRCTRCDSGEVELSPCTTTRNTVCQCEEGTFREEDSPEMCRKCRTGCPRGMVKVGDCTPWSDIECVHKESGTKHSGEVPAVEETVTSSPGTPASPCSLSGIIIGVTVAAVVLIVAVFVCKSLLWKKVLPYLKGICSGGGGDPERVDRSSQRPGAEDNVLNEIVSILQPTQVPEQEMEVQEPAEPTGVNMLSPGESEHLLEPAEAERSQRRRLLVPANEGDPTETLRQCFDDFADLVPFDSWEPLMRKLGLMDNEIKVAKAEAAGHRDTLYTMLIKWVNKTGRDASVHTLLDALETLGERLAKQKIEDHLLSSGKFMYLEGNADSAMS

Legend:
[1] = molecular target: human DR5-Fc (human) (UniProt O14763); test: ELISA, 10 nM bivalent SBP on coated human DR5-Fc (100 ng/well)
[2] = molecular target: T1, human DR4-Fc (human) (UniProt O00220); test: ELISA, 10 nM bivalent SBP on coated human DR4-Fc (100 ng/well)
T1 sequence: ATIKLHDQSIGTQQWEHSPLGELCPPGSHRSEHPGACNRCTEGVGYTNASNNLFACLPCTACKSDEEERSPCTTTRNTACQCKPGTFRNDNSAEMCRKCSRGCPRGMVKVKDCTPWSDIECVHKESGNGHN

[3] = molecular target: T2, human DR4 (human) (UniProt O00220); test: antigen ELISA on coated human DR4
T2 sequence: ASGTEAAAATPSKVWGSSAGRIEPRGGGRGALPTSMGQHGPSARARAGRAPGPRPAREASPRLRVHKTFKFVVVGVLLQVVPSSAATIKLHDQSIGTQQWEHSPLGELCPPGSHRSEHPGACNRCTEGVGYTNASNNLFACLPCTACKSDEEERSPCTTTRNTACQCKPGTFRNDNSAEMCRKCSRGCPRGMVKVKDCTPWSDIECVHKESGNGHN

[4] = molecular target: human DR5-Fc (human) (UniProt O14763); test: ELISA, 100 ng/well human DR5-Fc, 10 nM bivalent SBP, detection HRP-aVpreB
[5] = molecular target: T3, hOPG (human) (UniProt O00300); test: ELISA, bivalent SBP on TRAIL receptor family proteins [C]
T3 sequence (receptor, looked up): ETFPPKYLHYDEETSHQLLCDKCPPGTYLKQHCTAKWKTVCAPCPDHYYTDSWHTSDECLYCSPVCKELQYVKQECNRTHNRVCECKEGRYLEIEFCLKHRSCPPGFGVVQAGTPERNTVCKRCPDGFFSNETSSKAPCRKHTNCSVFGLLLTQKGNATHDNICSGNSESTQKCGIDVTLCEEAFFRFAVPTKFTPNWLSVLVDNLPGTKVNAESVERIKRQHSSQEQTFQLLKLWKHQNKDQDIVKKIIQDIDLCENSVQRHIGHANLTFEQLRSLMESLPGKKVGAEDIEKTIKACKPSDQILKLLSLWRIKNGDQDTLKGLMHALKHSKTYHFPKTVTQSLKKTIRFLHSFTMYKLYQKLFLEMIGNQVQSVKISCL

[6] = molecular target: T1, human DR4-Fc (human); test: ELISA, 100 ng/well human DR4-Fc, 10 nM bivalent SBP, detection HRP-aVpreB
[7] = molecular target: human DR5 (human) (UniProt O14763); test: antigen ELISA on coated human DR5
[8] = molecular target: T4, Rhesus (NHP-2) DR4-Fc (Rhesus) (UniProt F6TP00); test: ELISA on coated NHP-2 DR4-Fc, detection with anti-VpreB-HRP [panel C]
T4 sequence: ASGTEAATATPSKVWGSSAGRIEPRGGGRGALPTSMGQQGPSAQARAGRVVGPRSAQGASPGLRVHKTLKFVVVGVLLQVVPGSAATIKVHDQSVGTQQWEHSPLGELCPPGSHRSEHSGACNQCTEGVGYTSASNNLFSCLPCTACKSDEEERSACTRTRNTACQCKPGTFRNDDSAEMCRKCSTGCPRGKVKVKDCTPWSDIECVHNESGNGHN

[9] = molecular target: T4, Rhesus (NHP-2) DR4-Fc (Rhesus); test: ELISA, half-log dilutions on coated Fc fusion, anti-VpreB-HRP
[10] = molecular target: T4, Rhesus (NHP-2) DR4-Fc (Rhesus); test: ELISA on coated Fc fusion (figure legend)

binding [1]: binds
binding [2]: binds
binding [3]: binds
binding [4]: binds
binding [5]: no binding (tested: 1000 nM)
binding [6]: binds
binding [7]: binds
B1: 3631-G09 bivalent SBP (protein)
VH: EVQLVESGGGLVKPGGSLRLSCAASGFTFSTYGMHWVRQAPGKGLEWVAGINYSGNNKYYADSVKGRFTISRDNAKNSLYLQMNSLRAEDTAVYYCARDHSTWLSRHLDYWGQGTLVTVSS
surrogate light: QPVLHQPPAMSSALGTTIRLTCTLRNDHDIGVYSVYWYQQRPGHPPRFLLRYFSQSDKSQGPQVPPRFSGSKDVARNRGYLSISELQPEDEAMYYCAMGARSSVTHVFGSGTQLTVLSQPKATPSVTLFPPSSEELQANKATLVCLMNDFYPGILTVTWKADGTPITQGVEMTTPSKQSNNKYAASSYLSLTPEQWRSRRSYSCQVMHEGSTVEKTVAPAECS

binding [8]: binds
binding [9]: binds
binding [10]: binds
B2: 3706-A02 (SL466) (protein)
VH: B1 VH with H100S, W103T, L104R, S105T, H107A
light: B1 surrogate light
